No constants are given. Whether binding was seen depends on the method and setting. For part of these data: Binding seen in cells or lysates may run through a third protein. Some entries that bind do so weakly or less than the wild type. Where a sequence is shown, tags or fusion partners need not be part of it. Each block holds one binder with its values, some of them ahead of it.
How the values were obtained:
His-S-PR-Set7 = target: T1, His-S-PR-Set7 (UniProt Q9NQR1); assay: pull-down; purified recombinant FLAG-Riz1 truncations incubated in vitro with recombinant His-S-PR-Set7; S-tag-immunoprecipitation; Western analysis (Figure 2B); both purified
T1 sequence: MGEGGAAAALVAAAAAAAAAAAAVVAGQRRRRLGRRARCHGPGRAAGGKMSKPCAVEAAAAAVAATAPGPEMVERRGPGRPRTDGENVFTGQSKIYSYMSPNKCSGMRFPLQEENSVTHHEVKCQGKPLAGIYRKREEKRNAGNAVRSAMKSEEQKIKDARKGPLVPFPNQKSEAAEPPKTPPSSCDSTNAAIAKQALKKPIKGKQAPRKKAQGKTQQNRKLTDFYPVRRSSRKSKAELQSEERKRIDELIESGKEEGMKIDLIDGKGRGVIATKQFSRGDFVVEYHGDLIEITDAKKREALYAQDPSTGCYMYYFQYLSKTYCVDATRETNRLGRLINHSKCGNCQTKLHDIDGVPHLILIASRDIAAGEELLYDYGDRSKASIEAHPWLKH

Chains of the proteins cited; added tags and fusions are not shown.
UniProt Q96KQ7: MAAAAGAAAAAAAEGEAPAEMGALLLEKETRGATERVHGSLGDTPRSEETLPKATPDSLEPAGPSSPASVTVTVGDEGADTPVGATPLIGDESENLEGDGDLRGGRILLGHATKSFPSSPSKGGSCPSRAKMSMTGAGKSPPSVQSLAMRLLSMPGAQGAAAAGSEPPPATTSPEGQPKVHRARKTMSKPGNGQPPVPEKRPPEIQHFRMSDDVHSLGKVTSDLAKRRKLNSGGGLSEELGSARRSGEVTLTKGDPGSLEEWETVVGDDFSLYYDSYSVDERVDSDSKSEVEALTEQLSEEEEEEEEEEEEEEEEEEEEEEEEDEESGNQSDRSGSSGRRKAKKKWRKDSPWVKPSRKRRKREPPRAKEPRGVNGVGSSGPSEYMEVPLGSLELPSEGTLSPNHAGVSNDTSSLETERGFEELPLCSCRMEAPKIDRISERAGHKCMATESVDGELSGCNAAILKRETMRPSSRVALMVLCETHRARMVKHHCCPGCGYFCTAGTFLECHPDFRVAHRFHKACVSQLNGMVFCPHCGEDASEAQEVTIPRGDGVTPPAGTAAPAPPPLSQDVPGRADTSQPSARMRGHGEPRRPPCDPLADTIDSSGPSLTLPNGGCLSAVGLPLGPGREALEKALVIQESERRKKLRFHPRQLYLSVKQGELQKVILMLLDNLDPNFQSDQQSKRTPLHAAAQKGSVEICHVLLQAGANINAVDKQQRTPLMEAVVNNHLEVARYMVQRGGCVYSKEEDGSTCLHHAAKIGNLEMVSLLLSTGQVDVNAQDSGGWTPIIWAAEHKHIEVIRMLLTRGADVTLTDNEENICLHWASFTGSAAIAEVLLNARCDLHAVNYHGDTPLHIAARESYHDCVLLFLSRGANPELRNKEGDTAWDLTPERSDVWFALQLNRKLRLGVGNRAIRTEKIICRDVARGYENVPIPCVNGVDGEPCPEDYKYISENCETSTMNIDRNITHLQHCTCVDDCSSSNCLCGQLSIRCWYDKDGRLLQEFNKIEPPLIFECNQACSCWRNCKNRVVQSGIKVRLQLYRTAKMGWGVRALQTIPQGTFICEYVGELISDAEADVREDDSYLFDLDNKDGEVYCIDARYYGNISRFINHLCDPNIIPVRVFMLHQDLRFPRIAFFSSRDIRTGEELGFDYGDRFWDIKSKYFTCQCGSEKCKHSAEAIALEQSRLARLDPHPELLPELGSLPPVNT
UniProt Q9H9B1: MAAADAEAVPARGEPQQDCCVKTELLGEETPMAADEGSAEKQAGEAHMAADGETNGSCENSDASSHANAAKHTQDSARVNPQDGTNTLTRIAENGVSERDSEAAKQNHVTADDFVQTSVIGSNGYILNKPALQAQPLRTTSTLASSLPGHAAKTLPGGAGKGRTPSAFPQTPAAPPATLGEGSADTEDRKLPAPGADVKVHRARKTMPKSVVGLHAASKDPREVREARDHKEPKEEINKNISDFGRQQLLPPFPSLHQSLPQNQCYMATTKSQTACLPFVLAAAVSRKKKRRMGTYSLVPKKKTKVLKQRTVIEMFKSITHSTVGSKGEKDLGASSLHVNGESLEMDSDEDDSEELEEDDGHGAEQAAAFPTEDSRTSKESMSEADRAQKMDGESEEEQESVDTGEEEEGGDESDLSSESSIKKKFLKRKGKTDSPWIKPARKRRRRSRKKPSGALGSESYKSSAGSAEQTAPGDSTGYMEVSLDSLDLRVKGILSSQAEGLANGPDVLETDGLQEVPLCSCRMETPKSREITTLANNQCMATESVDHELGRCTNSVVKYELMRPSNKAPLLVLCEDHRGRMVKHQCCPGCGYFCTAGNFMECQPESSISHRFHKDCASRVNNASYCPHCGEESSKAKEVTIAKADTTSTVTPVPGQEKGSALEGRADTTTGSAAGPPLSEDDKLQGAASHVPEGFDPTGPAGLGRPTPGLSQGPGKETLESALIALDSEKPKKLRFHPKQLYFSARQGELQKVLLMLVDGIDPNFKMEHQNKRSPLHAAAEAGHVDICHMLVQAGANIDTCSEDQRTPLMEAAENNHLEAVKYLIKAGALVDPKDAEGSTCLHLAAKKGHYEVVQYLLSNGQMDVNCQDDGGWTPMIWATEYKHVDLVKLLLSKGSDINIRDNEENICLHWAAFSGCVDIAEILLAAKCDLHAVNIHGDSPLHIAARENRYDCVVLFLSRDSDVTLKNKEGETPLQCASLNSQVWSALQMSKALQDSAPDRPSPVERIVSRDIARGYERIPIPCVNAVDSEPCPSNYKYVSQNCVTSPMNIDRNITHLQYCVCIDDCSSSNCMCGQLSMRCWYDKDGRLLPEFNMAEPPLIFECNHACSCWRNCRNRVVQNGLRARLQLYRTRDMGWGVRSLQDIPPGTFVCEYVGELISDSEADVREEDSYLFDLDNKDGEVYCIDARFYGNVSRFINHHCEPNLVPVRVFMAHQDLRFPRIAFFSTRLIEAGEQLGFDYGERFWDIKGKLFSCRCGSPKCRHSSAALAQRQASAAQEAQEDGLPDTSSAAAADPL

GST-Riz1C = target: T2, GST-Riz1C (UniProt Q13029); assay: pull-down; recombinant His-PR-Set7 proteins incubated in vitro with recombinant GST-Riz1C or GST alone; GST pull-down; Western analysis (Figure 2C); both purified
T2 sequence: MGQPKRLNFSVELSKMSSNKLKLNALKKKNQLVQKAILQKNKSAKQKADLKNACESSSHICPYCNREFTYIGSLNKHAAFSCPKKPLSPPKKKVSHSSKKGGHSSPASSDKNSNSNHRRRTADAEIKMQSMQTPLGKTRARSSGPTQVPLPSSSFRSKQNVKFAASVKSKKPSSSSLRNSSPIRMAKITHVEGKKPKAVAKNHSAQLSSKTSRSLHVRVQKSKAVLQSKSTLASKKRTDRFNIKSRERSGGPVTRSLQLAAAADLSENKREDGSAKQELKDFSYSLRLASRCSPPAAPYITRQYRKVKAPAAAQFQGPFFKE

FLAG-Riz1ΔC (aa1-1396) = target: T3, FLAG-Riz1ΔC (aa1-1396) (UniProt Q13029); assay: co-IP; HeLa cells co-transfected with FLAG-Riz1C or FLAG-Riz1ΔC and DBD-PR-Set7 or DBD-G9aC; FLAG-immunoprecipitation; Western analysis (Figure 2D)
T3 sequence: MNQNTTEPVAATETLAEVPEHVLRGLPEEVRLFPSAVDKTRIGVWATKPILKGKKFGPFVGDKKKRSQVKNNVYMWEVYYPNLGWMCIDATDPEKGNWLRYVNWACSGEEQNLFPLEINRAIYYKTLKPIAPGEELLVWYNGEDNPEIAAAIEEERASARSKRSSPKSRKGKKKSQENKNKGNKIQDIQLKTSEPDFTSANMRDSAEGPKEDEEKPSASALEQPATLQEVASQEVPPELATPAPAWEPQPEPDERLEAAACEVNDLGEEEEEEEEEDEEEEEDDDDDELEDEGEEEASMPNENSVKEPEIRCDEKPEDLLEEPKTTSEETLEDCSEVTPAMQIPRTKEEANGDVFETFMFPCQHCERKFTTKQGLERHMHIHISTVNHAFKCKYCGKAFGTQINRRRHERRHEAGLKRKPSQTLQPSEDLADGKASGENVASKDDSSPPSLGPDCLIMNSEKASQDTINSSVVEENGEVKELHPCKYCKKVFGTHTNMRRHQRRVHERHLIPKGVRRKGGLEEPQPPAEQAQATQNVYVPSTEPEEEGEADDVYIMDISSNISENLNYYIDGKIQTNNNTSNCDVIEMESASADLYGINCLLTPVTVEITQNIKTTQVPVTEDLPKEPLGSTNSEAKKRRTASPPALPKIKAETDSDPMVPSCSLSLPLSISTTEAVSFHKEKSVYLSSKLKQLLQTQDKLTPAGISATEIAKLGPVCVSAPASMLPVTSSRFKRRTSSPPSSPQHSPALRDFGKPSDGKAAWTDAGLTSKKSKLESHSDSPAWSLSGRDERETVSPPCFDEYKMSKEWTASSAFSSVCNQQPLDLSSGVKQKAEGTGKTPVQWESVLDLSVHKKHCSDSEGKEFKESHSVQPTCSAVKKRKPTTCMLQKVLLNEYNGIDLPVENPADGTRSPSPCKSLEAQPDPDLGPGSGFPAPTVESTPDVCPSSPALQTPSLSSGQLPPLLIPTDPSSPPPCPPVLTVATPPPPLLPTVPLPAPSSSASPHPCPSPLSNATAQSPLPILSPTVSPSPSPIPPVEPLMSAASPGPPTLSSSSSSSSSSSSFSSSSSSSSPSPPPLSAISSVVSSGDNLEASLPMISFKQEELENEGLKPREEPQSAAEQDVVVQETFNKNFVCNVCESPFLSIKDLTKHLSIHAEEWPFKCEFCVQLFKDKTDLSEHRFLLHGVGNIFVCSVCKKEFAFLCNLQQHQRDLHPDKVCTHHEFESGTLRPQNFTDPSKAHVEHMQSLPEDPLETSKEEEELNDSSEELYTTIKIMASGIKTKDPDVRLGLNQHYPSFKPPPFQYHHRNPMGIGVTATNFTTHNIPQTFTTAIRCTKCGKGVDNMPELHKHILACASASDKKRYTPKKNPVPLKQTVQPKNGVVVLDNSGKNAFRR

FLAG-Riz1C = target: T4, FLAG-Riz1C (UniProt Q13029); assay: as above
T4 sequence: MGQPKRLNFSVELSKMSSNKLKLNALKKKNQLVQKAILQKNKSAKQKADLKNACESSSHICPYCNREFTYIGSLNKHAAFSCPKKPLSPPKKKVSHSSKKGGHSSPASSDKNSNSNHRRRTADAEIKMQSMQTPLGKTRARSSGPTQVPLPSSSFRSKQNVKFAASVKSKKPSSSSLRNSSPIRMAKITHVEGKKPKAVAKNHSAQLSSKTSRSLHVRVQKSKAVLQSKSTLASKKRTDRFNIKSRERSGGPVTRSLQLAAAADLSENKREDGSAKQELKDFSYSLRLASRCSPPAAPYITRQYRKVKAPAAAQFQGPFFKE

epitope-tagged G9a = epitope-tagged G9a (UniProt Q96KQ7); assay: co-IP; HeLa cells co-transfected; nuclear pellet in IP lysis buffer (50 mM Tris-HCl pH 7.0, 150 mM NaCl, 0.5 mM DTT, 1% NP-40); FLAG- or HA-conjugated beads; Western analysis (Figure 1B)
epitope-tagged GLP-1 = epitope-tagged GLP-1 (UniProt Q9H9B1); assay: as above

binding (His-S-PR-Set7): binds
B1: recombinant FLAG-Riz1 C-terminus (aa1397-1719) (domain or fragment, UniProt Q13029-1 1397-1718)
chain: MGQPKRLNFSVELSKMSSNKLKLNALKKKNQLVQKAILQKNKSAKQKADLKNACESSSHICPYCNREFTYIGSLNKHAAFSCPKKPLSPPKKKVSHSSKKGGHSSPASSDKNSNSNHRRRTADAEIKMQSMQTPLGKTRARSSGPTQVPLPSSSFRSKQNVKFAASVKSKKPSSSSLRNSSPIRMAKITHVEGKKPKAVAKNHSAQLSSKTSRSLHVRVQKSKAVLQSKSTLASKKRTDRFNIKSRERSGGPVTRSLQLAAAADLSENKREDGSAKQELKDFSYSLRLASRCSPPAAPYITRQYRKVKAPAAAQFQGPFFKE

binding (GST-Riz1C): binds
B2: His-S-PR-Set7 (protein, UniProt Q9NQR1 1-393)
chain: MGEGGAAAALVAAAAAAAAAAAAVVAGQRRRRLGRRARCHGPGRAAGGKMSKPCAVEAAAAAVAATAPGPEMVERRGPGRPRTDGENVFTGQSKIYSYMSPNKCSGMRFPLQEENSVTHHEVKCQGKPLAGIYRKREEKRNAGNAVRSAMKSEEQKIKDARKGPLVPFPNQKSEAAEPPKTPPSSCDSTNAAIAKQALKKPIKGKQAPRKKAQGKTQQNRKLTDFYPVRRSSRKSKAELQSEERKRIDELIESGKEEGMKIDLIDGKGRGVIATKQFSRGDFVVEYHGDLIEITDAKKREALYAQDPSTGCYMYYFQYLSKTYCVDATRETNRLGRLINHSKCGNCQTKLHDIDGVPHLILIASRDIAAGEELLYDYGDRSKASIEAHPWLKH

binding (FLAG-Riz1ΔC (aa1-1396)): no binding | binding (FLAG-Riz1C): binds
B3: DBD-PR-Set7 (protein, UniProt Q9NQR1 1-393)
chain: MGEGGAAAALVAAAAAAAAAAAAVVAGQRRRRLGRRARCHGPGRAAGGKMSKPCAVEAAAAAVAATAPGPEMVERRGPGRPRTDGENVFTGQSKIYSYMSPNKCSGMRFPLQEENSVTHHEVKCQGKPLAGIYRKREEKRNAGNAVRSAMKSEEQKIKDARKGPLVPFPNQKSEAAEPPKTPPSSCDSTNAAIAKQALKKPIKGKQAPRKKAQGKTQQNRKLTDFYPVRRSSRKSKAELQSEERKRIDELIESGKEEGMKIDLIDGKGRGVIATKQFSRGDFVVEYHGDLIEITDAKKREALYAQDPSTGCYMYYFQYLSKTYCVDATRETNRLGRLINHSKCGNCQTKLHDIDGVPHLILIASRDIAAGEELLYDYGDRSKASIEAHPWLKH

binding (epitope-tagged G9a): no binding | binding (epitope-tagged GLP-1): no binding
B4: Myc-PR-Set7 (protein, UniProt Q9NQR1 1-393)
chain: MGEGGAAAALVAAAAAAAAAAAAVVAGQRRRRLGRRARCHGPGRAAGGKMSKPCAVEAAAAAVAATAPGPEMVERRGPGRPRTDGENVFTGQSKIYSYMSPNKCSGMRFPLQEENSVTHHEVKCQGKPLAGIYRKREEKRNAGNAVRSAMKSEEQKIKDARKGPLVPFPNQKSEAAEPPKTPPSSCDSTNAAIAKQALKKPIKGKQAPRKKAQGKTQQNRKLTDFYPVRRSSRKSKAELQSEERKRIDELIESGKEEGMKIDLIDGKGRGVIATKQFSRGDFVVEYHGDLIEITDAKKREALYAQDPSTGCYMYYFQYLSKTYCVDATRETNRLGRLINHSKCGNCQTKLHDIDGVPHLILIASRDIAAGEELLYDYGDRSKASIEAHPWLKH
